PubChem BioAssay AID588342 (National Center for Advancing Translational Sciences (NCATS), 2011)
About 25,000 (6.9%) of roughly 360,000 compounds were called active. The shares of active, inactive and inconclusive entries below differ from those in the screen. The call rests on the fitted dose curve; in most records, active means well fitted inhibition curve with a large enough effect; inconclusive means small, poorly fitted or top-dose-only effect; inactive means flat fitted curve, though single readings scatter. Potencies beside an inconclusive call are fits to weak or partial responses and may not hold up.

target: Luciferin 4-monooxygenase (Photinus pyralis) (UniProt P08659); assay: qHTS profiling assay for firefly luciferase inhibitor/activator using purifed enzyme and Km concentrations of substrates (counterscreen for miR-21 project); settings: purified FLuc, luminescence inhibition; activity change, negative = inhibition: at 57.5 µM (top of the series); further: nearly all actives have a fitted effect of over 55% in size;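 on activity change, negative = inhibition: plate controls were vehicle for no effect and reference inhibitor for full effect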
Outline: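 Purified P. pyralis luciferase, 10 nM final, with Km-level 10 uM D-luciferin and 10 uM ATP in 50 mM Tris acetate pH 7.5, 10 mM Mg acetate, 0.01% Tween-20, 0.05% BSA; 6-point qHTS titration about 60 µM downward; luminescence read.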
Potency means the concentration at half of the fitted maximal effect; tags describe the fitted curve by direction and shape.

UniProt P08659, sequence (P08659 whole entry, looked up): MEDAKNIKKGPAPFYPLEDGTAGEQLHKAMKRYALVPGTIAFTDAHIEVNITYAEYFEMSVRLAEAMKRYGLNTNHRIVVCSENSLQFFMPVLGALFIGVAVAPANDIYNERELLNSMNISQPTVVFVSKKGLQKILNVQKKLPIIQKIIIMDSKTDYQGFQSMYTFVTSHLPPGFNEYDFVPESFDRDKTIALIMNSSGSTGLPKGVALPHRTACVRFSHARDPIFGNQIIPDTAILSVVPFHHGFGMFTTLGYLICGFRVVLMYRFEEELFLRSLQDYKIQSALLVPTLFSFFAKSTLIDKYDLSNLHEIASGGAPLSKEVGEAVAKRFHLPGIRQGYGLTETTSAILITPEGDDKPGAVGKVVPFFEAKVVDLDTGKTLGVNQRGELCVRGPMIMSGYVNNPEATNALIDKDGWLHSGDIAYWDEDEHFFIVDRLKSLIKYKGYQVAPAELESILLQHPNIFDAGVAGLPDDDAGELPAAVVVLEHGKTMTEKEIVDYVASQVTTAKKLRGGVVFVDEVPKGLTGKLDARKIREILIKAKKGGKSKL

| Structure (SMILES) | activity change, negative = inhibition | Potency |
| --- | --- | --- |
| CCN(CC)CCCNC(=O)COc1ccc2oc3c(c2c1)CCCC3 | inactive: -2.85% |  |
| CCCCNC(=O)c1onc(CSc2cccc3ccccc23)c1C(=O)O |  | inconclusive: 30.1 µM [inhibitor, single point] |
| Cc1ccnn1CCC(=O)N1CCCC(CCC(=O)N2CCN(c3ccccn3)CC2)C1 (configuration not stated) | inactive: -1.19% |  |
| COc1ccc(N2CC(C(=O)Nc3nc4ccc(OC)cc4s3)CC2=O)cc1 (configuration not stated) |  | inconclusive: 37.9 µM [inhibitor, partial curve, poor fit] |
| COc1ccc2c(c1)OCC1=C2CCC2(C)C(=O)CC=C12 (configuration not stated) |  | inconclusive: 3.38 µM [inhibitor, partial curve, poor fit] |
| Cn1nc(C(=O)NCCc2ccc(S(N)(=O)=O)cc2)c2ccccc2c1=O | inactive: 4.45% |  |
| CCCOc1ccccc1C(=O)N1CCCCC1CCN1CCCCC1 (configuration not stated) | inactive: -0.332% |  |
| C/C(=N\NC(=O)c1cc2ccccc2cc1O)c1ccccn1 |  | active: 4.78 µM |
| CC(=O)c1cccc(NC(=O)NCc2ccccn2)c1 |  | active: 9.53 µM |
| COC(=O)c1ccc(C(=O)OC)c(NC(=O)CSc2cccc[n+]2[O-])c1 |  | inconclusive: 23.9 µM [inhibitor, partial curve, poor fit] |
| COc1ccc(OC)c(Cc2nnc(CCC(=O)NC3CCCCCCC3)o2)c1 |  | inconclusive: 21.3 µM [inhibitor, single point] |
| COc1cc(O)ccc1-c1nc2ccc(Br)cn2c1Nc1ccccc1C | inactive: 2.48% |  |
| CC(NC(=S)Nc1ccc(OC(F)F)c(Cl)c1)C(C)(C)C (configuration not stated) |  | inconclusive: 23.9 µM [inhibitor, partial curve] |
| Cc1ccc(C(=O)OCC(=O)Nc2cccc(S(=O)(=O)N3CCOCC3)c2)o1 | inactive: 5.2% |  |
| CC1(C)Cc2nc3sc(C(=O)NCCO)c(N)c3cc2CO1 |  | active: 26.9 µM |
| O=S(=O)(Nc1ccc(-c2ccc(N3CCOCC3)nn2)cc1)c1ccc(Cl)c(Cl)c1 |  | active: 23.9 µM |
| Cc1cccc(-n2ncc3c(NCc4ccccn4)ncnc32)c1 |  | inconclusive: 26.9 µM [inhibitor, single point] |
| CCCNC(=O)c1cc2ccccc2c(=O)o1 |  | inconclusive: 37.9 µM [inhibitor, single point] |
| O=C(COC(=O)c1ccc(O)cc1)Nc1cccc(S(=O)(=O)N2CCCCC2)c1 |  | inconclusive: 26.9 µM [inhibitor, partial curve, poor fit] |
| Cc1nc(NC(=O)c2ccc(Cl)cc2)sc1Cc1ccc2c(c1)OCO2 |  | inconclusive: 19 µM [inhibitor, single point] |
| Cc1nnc(SCC(=O)Nc2sc3c(c2C(N)=O)CCC(C)C3)[nH]c1=O (configuration not stated) |  | inconclusive: 26.9 µM [inhibitor, single point] |
| COc1cc(Cl)ccc1OCc1cc(C(=O)N2C[C@]3(C)C[C@H]2CC(C)(C)C3)no1 |  | active: 19 µM |
| OCCN(CCO)Cc1csc2ccccc12 | inactive: 7.53% |  |
| Cc1ccn2c(Nc3ccc4c(c3)OCO4)c(-c3ccc(C)o3)nc2c1 |  | active: 23.9 µM |

| Structure (SMILES) | activity change, negative = inhibition | Potency |
| --- | --- | --- |
| COc1cccc(C(=O)Nc2ccc3[nH]ncc3c2)c1OC |  | inconclusive: 26.9 µM [inhibitor, partial curve] |
| Cn1c(NC(=O)c2ccc(Cl)cc2Cl)cc(=O)n(C)c1=O | inactive: 14.2% |  |
| CC1=C(C(=O)Nc2ccc(C)cc2)C(c2cccs2)NC(=S)N1 (configuration not stated) |  | inconclusive: 30.1 µM [inhibitor, partial curve, poor fit] |
| Cn1nnc(NC(=O)c2ccc(C(C)(C)C)cc2)n1 |  | active: 3.38 µM |
| COC(=O)c1ccccc1NC(=O)Nc1cccnc1 |  | active: 15.1 µM |
| CCc1ccc(NCc2cc3ccc(OC)cc3n(CC(=O)Nc3ccccc3OC)c2=O)cc1 | inactive: 1.86% |  |
| N#CC1=C(S)N(c2ccccc2)C(c2ccc(-c3cc(Cl)ccc3Cl)o2)NC1=O (configuration not stated) |  | inconclusive: 26.9 µM [inhibitor, partial curve, poor fit] |
| O=C(CSc1nnc(Cc2ccccc2)c(=O)[nH]1)Nc1ccccc1 | inactive: -12.3% |  |
| COc1cccc(S(=O)(=O)NCC(=O)Nc2ccc(C(C)(C)C)cc2)c1 |  | inconclusive: 26.9 µM [inhibitor, partial curve, poor fit] |
| CCOc1ccc(NC(=O)c2sc3nc4n(c(=O)c3c2C)CCCC4)cc1 | inactive: -2.66% |  |
| COc1ccc(CN(C)S(=O)(=O)c2nnc(NC(=O)c3cccc(C)c3)s2)cc1OC | inactive: 0.793% |  |
| O=Cc1ccc2ccc3cccnc3c2n1 |  | inconclusive: 26.9 µM [inhibitor, partial curve, poor fit] |
| COc1cc([N+](=O)[O-])ccc1NC(=O)NCc1ccco1 |  | inconclusive: 23.9 µM [inhibitor, single point] |
| Fc1ccc(Nc2nc(-c3cccc(Cl)c3)c3c(n2)-c2ccccc2OC3)cc1 |  | inconclusive: 37.9 µM [inhibitor, partial curve, poor fit] |
| O=C(Nc1cccc(C(=O)N2CCN(c3ccccc3)CC2)c1)c1nsc2ccccc12 |  | active: 2.69 µM |
| O=C(N/N=C\c1ccc(O)c([N+](=O)[O-])c1)c1ccccc1-n1cccc1 |  | inconclusive: 30.1 µM [inhibitor, single point] |
| O=C(Nc1ccc(-c2nnc3n2CCCCC3)cc1)c1ccco1 | inactive: 0.198% |  |
| Cc1nn(C)cc1NC(=O)c1cc2nc(-c3ccco3)cc(C(F)(F)F)n2n1 | inactive: -1.4% |  |
| CC1=Nc2cc(C(=O)O)ccc2Sc2ccc(C)cc21 |  | inconclusive: 26.9 µM [inhibitor, single point] |
| c1ccc2sc(SN3CCOCC3)nc2c1 |  | active: 23.9 µM |
| O=C(NCC(c1ccc2c(c1)OCO2)N1CCN(c2ccccc2)CC1)C(=O)Nc1ccccc1 (configuration not stated) | inactive: 3.26% |  |
| COC(=O)c1ccc(C2C3=C(Nc4nnnn42)c2ccccc2OC3)cc1 (configuration not stated) |  | active: 6.01 µM |
| O=C(Nc1cccc(NC(=O)c2ccccc2[N+](=O)[O-])c1)c1ccccc1Cl |  | inconclusive: 37.9 µM [inhibitor, single point] |
| N#Cc1ccccc1NC(=O)c1ccc2c(c1)OCO2 |  | inconclusive: 30.1 µM [inhibitor, single point] |

| Structure (SMILES) | activity change, negative = inhibition | Potency |
| --- | --- | --- |
| O=c1oc2ccc([N+](=O)[O-])cc2c(N2CCOCC2)c1[N+](=O)[O-] |  | inconclusive: 23.9 µM [inhibitor, partial curve, poor fit] |
| CCOc1ccc(C2C(C(N)=O)=C(C)Nc3nc(-c4ccc(OC)cc4)nn32)cc1 (configuration not stated) |  | inconclusive: 16.9 µM [inhibitor, single point] |
| Cc1ccc(N2CSC3=C(C#N)C(c4cccs4)CC(=O)N3C2)cc1 (configuration not stated) |  | inconclusive: 23.9 µM [inhibitor, single point] |
| CCCCc1c(C)nn(-c2nnc3c4ccccc4n(CC)c3n2)c1C |  | inconclusive: 12 µM [inhibitor, partial curve] |
| O=C(c1cc(-c2ccccc2)nc2ccccc12)N1CCOCC1 |  | inconclusive: 16.9 µM [inhibitor, partial curve] |
| CCOC(=O)CC(=O)CSc1nc2c(cc1C#N)CCCCCC2 |  | inconclusive: 21.3 µM [inhibitor, partial curve] |
| CCC(C)N=C1Sc2nc3ccc(C)cc3cc2CN1CCOC (configuration not stated) |  | inconclusive: 37.9 µM [inhibitor, partial curve, poor fit] |
| O=C(Nc1ccc(Br)cc1)C1Cc2ccccc2O/C1=N\O (configuration not stated) |  | inconclusive: 30.1 µM [inhibitor, partial curve, poor fit] |
| COc1cccc(OCCNc2cc(Cl)ccc2[N+](=O)[O-])c1 |  | inconclusive: 16.9 µM [inhibitor, single point] |
| COc1cccc(Cn2c(OCC3CCCO3)nc3c2c(=O)n(C)c(=O)n3C)c1 (configuration not stated) |  | inconclusive: 26.9 µM [inhibitor, partial curve, poor fit] |
| CC(=O)Nc1ccc(N=Cc2c(O)ccc3ccccc23)cc1 |  | inconclusive: 15.1 µM [inhibitor, partial curve] |
| O=C1N/C(=N/NC(=O)c2cccc3ccccc23)S/C1=C\c1ccccc1OCc1ccccc1 |  | inconclusive: 37.9 µM [inhibitor, partial curve, poor fit] |
| Cc1ccc(NC(=O)/C(CN(C)C)=N\O)cc1 |  | inconclusive: 26.9 µM [inhibitor, partial curve] |
| COc1ccc(-c2c(C)c3cc(O)ccc3oc2=O)cc1 |  | inconclusive: 21.3 µM [inhibitor, partial curve, poor fit] |
| COc1ccc(/C=C2/N=C3CCCCCN3C2=O)cc1OC |  | inconclusive: 26.9 µM [inhibitor, single point] |
| CN1CCN(C(=O)C2=C[C@@H](c3ccc4c(c3)OCO4)C[C@@H](OCc3ccc(CO)cc3)O2)CC1 | inactive: 3.12% |  |
| Cc1ccc2c(c1)cc(C(=O)NCc1ccc(F)cc1)n2C | inactive: -1.03% |  |
| CCOc1ccccc1NC(=O)NC1CCCCCCC1 |  | inconclusive: 21.3 µM [inhibitor, partial curve] |
| Cc1nonc1C1CCCN1C(=O)c1cc(COc2ccc(F)cc2Cl)on1 (configuration not stated) |  | inconclusive: 33.8 µM [inhibitor, partial curve, poor fit] |
| CCOCC(=O)Nc1ccc(-c2cn3c(C)csc3n2)cc1 |  | active: 16.9 µM |
| Cn1cc(C(=O)N/N=C/c2cc(Br)cs2)c2ccccc21 |  | inconclusive: 16.9 µM [inhibitor, partial curve] |
| O=C1CCC(C(=O)N2CCc3c(Cl)cccc3C2)CN1CCCN1CCOCC1 (configuration not stated) | inactive: 0.253% |  |
| CCOC(=O)c1c(C)[nH]c(C(=O)NNC(=O)c2ccccc2)c1C |  | active: 6.75 µM |
| C=CCSC1=N/C(=C\c2ccsc2)C(=O)S1 |  | inconclusive: 16.9 µM [inhibitor, partial curve] |
